Out of some 48,000 compounds screened, about 120 (0.25%) were called active. Roughly 4% stayed inconclusive and do not appear here. Calls come from the whole dose curve; as a rule, active = well fitted activation curve with a large enough effect; inconclusive = small, poorly fitted or top-dose-only effect, or another doubt; inactive = no such curve, though single readings can be large or run the other way. The list shows a part of the results.
Experiment: Primary qHTS for Identification of Small Molecule Activators of Huntingtin-Antisense Promoter Activity; note: nearly all actives have a fitted effect of over 55% in size
Settings: HEK293 HTT-AS promoter firefly luciferase reporter (activity 0% = vehicle and -100% = no light), 24 h; series mostly up to 57.5 µM; activity change, positive = activation: at the top concentration
Procedure, shortened: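 HEK293 Fluc reporter, 2,500 cells/well, 24 h pre-culture; cpds up to 57.5 uM final, 24 h 37 degrees C; Dual-Glo, 10 min RT; normalized vehicle = 0%, zero RLU = -100%.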

| Compound | activity change, positive = activation |
| --- | --- |
| Cc1oc(-c2ccccc2Cl)nc1CS(=O)CC(=O)NCc1ccc(Cl)cc1 (stereo not drawn) | inactive: -8.64% |
| Cc1cc(C(F)F)n2nc(C(=O)Nc3ccc(C(C)C)cc3)nc2n1 | inactive: 14.8% |
| Cc1ccc(COc2ccc(-c3cc(C(F)(F)F)n4nc(C)cc4n3)cc2)cc1 | inactive: -7.46% |
| Fc1ccc(-c2ccc(CNCCSc3nnnn3-c3ccccc3)o2)cc1 | inactive: -4.57% |
| O=S(=O)(Nc1nc2ccccc2nc1Nc1ccccc1Br)c1ccccc1 | inactive: -13.3% |
| COc1ccc(CNS(=O)(=O)c2cc3c4c(c2)CCN4C(=O)CC3)cc1 | inactive: -21.3% |
| O=C(CSc1nc2c([nH]c3ccccc32)c(=O)n1-c1cccc(Cl)c1)NCC1CCCO1 (stereo not drawn) | inactive: -22.8% |
| COc1cccc(CNC(=O)C(C)n2ncn3cccc3c2=O)c1OC (stereo not drawn) | inactive: -8.04% |
| O=C(Cn1c2ncccc2c(=O)n1-c1ccccc1)NCc1ccccc1Cl | inactive: -14.7% |
| CCOc1ccc(-c2cn(-c3ccc(C)cc3)c(SCC(=O)Nc3ccc(C)cc3)n2)cc1 | inactive: -19% |
| Cc1ccc(NC(=O)Cc2coc3ccc(C(C)C)cc23)c(C)c1 | inactive: -20.3% |
| CC(=O)Nc1ccc(S(=O)(=O)N2CCC(c3nnc(-c4ccc(C)cc4)o3)CC2)cc1 | inactive: -36.5% |
| CC(C)C(=O)N1c2nc(-c3ccco3)nn2C2(CCCCC2)[C@@H]2CCCC[C@@H]21 | inactive: -23.1% |
| Cc1oc2c(cc(NS(=O)(=O)c3ccc(C(C)C)cc3)c3ccccc32)c1C(=O)O | inactive: -28.3% |
| CC1(C)CNc2cc(NC(=O)c3cccnc3NCc3ccncc3)ccc21 | inactive: 2.16% |
| Cc1ccc(CCNc2ncnc3onc(-c4ccc(F)cc4)c23)cc1 | inactive: -7.38% |
| O=c1[nH]nc(OCCCc2ccc(Cl)cc2)c(NCc2cccnc2)c1Br | inactive: -30.9% |
| COc1cccc(CNC(=O)Cn2c(=O)n3nc(-c4cccc(F)c4)nc3c3ccccc32)c1 | inactive: -0.817% |
| CCN(CC)C(=O)c1sc2c(c1C)c(=O)n(-c1ccc(Cl)c(Cl)c1)c(=O)n2Cc1cc(=O)n2ccccc2n1 | inactive: -33.2% |
| COc1ccc(NC(=O)CCn2c(=O)c3cccn3c3cccnc32)cc1Cl | inactive: -10.7% |
| O=C(Cn1c(=O)n(CCCS(=O)(=O)C2CCCCC2)c(=O)c2ccccc21)Nc1ccccc1C(F)(F)F | inactive: -4.69% |
| Cc1ccc(S(=O)(=O)c2[nH]c(-c3ccccc3)nc2SCC(N)=O)cc1 | inactive: -9.42% |
| COC(=O)c1sc2ncccc2c1-n1c(C)ccc1C | inactive: 10.7% |
| COc1ccccc1CNS(=O)(=O)c1ccc2c(c1)CC(=O)N2C | inactive: -9.9% |

| Compound | activity change, positive = activation |
| --- | --- |
| CCOC(=O)N1CCN(C(=O)c2c(C)nn(-c3cccc(C)c3)c2-n2cccc2)CC1 | inactive: -22.3% |
| Cc1ccc(C)c(N2CCN(C(=O)CCS(=O)(=O)c3cc4c(cc3Cl)NC(=O)CO4)CC2)c1 | inactive: -46.1% |
| O=C(NCc1ccc2c(c1)CCN2C(=O)c1ccccc1)c1ccccc1 | inactive: 11% |
| CCOc1ccccc1NC(=O)C(CC)Sc1nc2ncccc2[nH]1 (stereo not drawn) | inactive: -10.8% |
| Cc1ccc2oc3c(c(=O)c2c1)C(c1ccccc1F)N(CCCN(C)C)C3=O (stereo not drawn) | inactive: 14.9% |
| COc1ccc(CNC(=O)C2=C(C)C(=O)OC23CCCCC3)cc1 | inactive: -3.29% |
| COc1ccc(-n2ncc3c2ncn2nc(COc4ccc(Cl)cc4)nc32)cc1 | inactive: -11.8% |
| Cc1ccc(NC(=O)c2ccc3oc(=O)c(S(=O)(=O)c4ccccc4)cc3c2)cc1C | inactive: -23.8% |
| Cc1ccc(NC(=O)Cn2nnc(-c3nc(-c4ccncc4)no3)c2N)c(C)c1 | inactive: -6.01% |
| CC(NC(=O)C1CCN(C(=O)c2ccc(-n3ccc4ccccc43)s2)CC1)c1ccccc1 (stereo not drawn) | inactive: -0.988% |
| COc1ccccc1NC(=O)C1=C(C)Nc2nc(SCc3ccc(Cl)cc3)nn2C1c1ccccc1Cl (stereo not drawn) | inactive: -15.8% |
| CCOC(=O)C1CCN(C(=O)CN2c3ccc(C(C)C)cc3-c3ccccc3S2(=O)=O)CC1 | inactive: 12.1% |
| CCOc1ccc(OC(=O)c2cn(-c3cccc(OC)c3)c(=O)c3ccccc23)cc1 | inactive: -14.8% |
| CC1CCN(C(=O)c2cc3c(=O)n(C)c4ccccc4c3s2)CC1 | inactive: 15.3% |
| CCOC(=O)c1c(NC(C)=O)c2c3c(sc2n1Cc1ccc(Cl)cc1)CCCC3 | inactive: 6.8% |
| COc1cc(C2NC(=O)N(C)C3=C2C(=O)N(c2cccc(Cl)c2)C3)ccc1O (stereo not drawn) | inactive: -9.58% |
| COc1cccc(-n2c(SCC(=O)Nc3cccc(Cl)c3)nc3c(oc4ccccc43)c2=O)c1 | inactive: -13% |
| Cc1c(NC(=O)CC(C)C)cccc1-c1nc2cccnc2s1 | inactive: -10.8% |
| COc1ccccc1OC(=O)Oc1ccccc1OC | inactive: 0.058% |
| COc1ccc(/C=C\C(=O)NC2CC(=O)N(c3ccc(F)cc3)C2)cc1OC (stereo not drawn) | inactive: -7.1% |
| CS(=O)(=O)c1oc(-c2ccc(F)cc2)nc1S(=O)(=O)c1ccc(Cl)cc1 | inactive: -39.9% |
| O=C(CSc1nc2c(sc3ccccc32)c(=O)n1CCCC(=O)NC1CCCC1)Nc1ccc(F)cc1 | inactive: -5.22% |
| CCOc1ccccc1CNC(=O)c1ccc(-c2nc(CSc3ccc(C)cc3)c(C)o2)cc1 | inactive: -22.7% |
| COc1ccc(-n2c(=O)c3c(C)c(C)sc3n(CC(=O)NCc3ccc(C)cc3)c2=O)c(OC)c1 | inactive: -11.4% |
